Experimental data published in the RNAGym collection of RNA variant scans (doi:10.7554/elife.90254).
The source gives no read counts; variants with many changes may rest on few reads.

B1: OR4K15 (parent)
chain: GUUAACGGUCAUAGGCCAUGGAAACUAGGAGCACCAUUUCGCUGCCAGUGAAGAAAUGAACAAAGAAAAUCUGGGCCAGGCAGGCAUCAAAAGAAAUAGUCUUGCGCUCAACCAGAAAGUCUGUAAUCAUUUUAAGGGUA

Variants of: B1
Experiment: self-cleavage, relative activity (ratio to wild type); higher = more cleavage; in vitro, sequencing; the parent is a self-cleaving ribozyme

Variant	self-cleavage
C77U A94G U102A	1.72
C101A C109U U130C	0.04
A52C A55G A82G U103C	0.26
A11G U38C U72C	0.24
A36U U102A U108A	0.01
U19C A24G U37C A91G G106A	0.03
A22G A24G C81A A89G A111G	0.05
A18G C88A A116U	0.53
U43A A51G A91G A140G	0.93
G28A A111U C112U	0.02
U9A A110G A116G	0.12
A54G G58U A66U	0.92
A27G A54G C113U	0.06
U2A A33U A111G	0.05
A55G A56G A68G A111G A135U	0.02
A33G U37C A64G A125G A135G	0.2
A59U C81A A95G U108C	0.02
A59G C61U U87A U108C	0.03
U2C A67G A118G	0.5
U9A C81A U124C	0.19
A4G U12C A13G A22G A51G	0.68

Variant	self-cleavage
A51G G80A U120C U122C	0.06
G29A A51U A69G A110C	0.13
A11G A54G A64G U100C U103A G104A	0.03
U12A A68C C107G A129U U130C	0.03
A52G A62U A63G U127C	0.59
A5G A22U U103C	0.78
U19C A90G G104C	0.01
U9C A33G U39C	2.22
U19C U102C U122C	0.32
U2C A22G A23G A59G U87C A92G A134C	0.69
A22U U39C C128U U130C	0.98
A18G U39C U57G A92G	0.84
U49C A60G U72C A90U G93A	0.21
A30G A117G U139C	1.04
G31A A64G A82U C109U	0.11
A24G C32U C46A A66G A68G U100C	1.04
U43C U57C A67G G106U A110G	0.04
A47G A117G U132C	0.83
A51G A52U A135G	0.52
C46U A52G U87C	1.6
A30G A55G A89G A118G	0.18

Variant	self-cleavage
A18C U39A U57C A86G	0.57
C16G A23C G123A	1.6
A51G A52G A90G	0.81
A47U A59G U122C	0.65
A18G A116G A125G	0.32
A18G A33U A66G A94U A111G A116G	0.05
A22G A47U U49C A59U U127C	0.24
U9A A95G U102C	2.54
A22U A67G U102C	1.47
A33G C40U G73U	0.12
U2C A55G A63U A98G A114U	0
U43C A68G U108C	0.01
U38C U102G U130C A140G	0.32
C35U A60U G75A A116U	0.03
U2C A22G U70G U108C	0.1
A56G C107A A135G	0.01
A30G A114U A116G A126G	0
U9C A95G U100C	2.21
A13U U19C A47G A116U	1.42
C16A G31A A55G A129G	1.94
U19A U37C G41A U122C	0.47

Variant	self-cleavage
A51G A67G U97C A116G	0.29
U19C A27G A56G A69U A86G A117G	1.2
C35U A63G A69C A90G	1.24
A33U A47G A91G U130C	0.36
A36G A55G A94G A98G	1.57
A22U A24G U39A C88A	1.51
U57C A96G U103A	0.17
A5G U37C A63G U87A	0.68
A5G A51G U100C A111G A117G	0.19
A51U A95G A96G	1.76
U9A A22G U103C U108C	0.03
U9C A59U A96C	0.83
A30G A82G A125U	0.98
A56G U70C U108C A110G A117G U133A	0
A55G A59G A90U	1.6
U12C A110U A135G	1.06
U87C U103C U130C	0.49
A5G U9C U12C A22G U57C A116U A125U U132C	0.22
U43C U108C U122C G137C	0.01
A11G U49C A90G U102C	1.54
G31A U103G U131C	0.08
